Source: patent US20260083855A1 (Hoffmann-La Roche, published 2026)

T1: hu IL2R beta-gamma-Fc (P1AD7029-002) (human, UniProt P14784 27-240; P31785 23-262)
T1 construct: Analyte in all SPR runs; also called human IL2R beta-gamma Fc; recombinant human IL2Rbeta-gamma-Fc heterodimer; not shown: Fc part and any linker of the heterodimer
T1 sequence (looked up) 1: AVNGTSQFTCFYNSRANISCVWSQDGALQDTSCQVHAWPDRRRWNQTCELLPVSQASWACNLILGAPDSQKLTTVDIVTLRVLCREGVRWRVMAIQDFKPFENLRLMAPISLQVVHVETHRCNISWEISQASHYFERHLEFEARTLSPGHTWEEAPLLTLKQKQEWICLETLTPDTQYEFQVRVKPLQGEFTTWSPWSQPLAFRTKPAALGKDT
T1 sequence (looked up) 2: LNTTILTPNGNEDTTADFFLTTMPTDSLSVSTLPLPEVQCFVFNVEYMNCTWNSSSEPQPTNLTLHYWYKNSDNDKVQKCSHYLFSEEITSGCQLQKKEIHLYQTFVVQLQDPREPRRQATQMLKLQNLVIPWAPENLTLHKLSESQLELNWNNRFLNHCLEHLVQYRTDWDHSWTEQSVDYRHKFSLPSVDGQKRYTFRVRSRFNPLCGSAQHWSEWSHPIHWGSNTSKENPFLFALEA

T2: IL-2R on human cells (activated CD4 T cells, PBMC subsets, NK92) (human, UniProt P14784 27-551; P31785 23-369)
T2 sequence (looked up) 1: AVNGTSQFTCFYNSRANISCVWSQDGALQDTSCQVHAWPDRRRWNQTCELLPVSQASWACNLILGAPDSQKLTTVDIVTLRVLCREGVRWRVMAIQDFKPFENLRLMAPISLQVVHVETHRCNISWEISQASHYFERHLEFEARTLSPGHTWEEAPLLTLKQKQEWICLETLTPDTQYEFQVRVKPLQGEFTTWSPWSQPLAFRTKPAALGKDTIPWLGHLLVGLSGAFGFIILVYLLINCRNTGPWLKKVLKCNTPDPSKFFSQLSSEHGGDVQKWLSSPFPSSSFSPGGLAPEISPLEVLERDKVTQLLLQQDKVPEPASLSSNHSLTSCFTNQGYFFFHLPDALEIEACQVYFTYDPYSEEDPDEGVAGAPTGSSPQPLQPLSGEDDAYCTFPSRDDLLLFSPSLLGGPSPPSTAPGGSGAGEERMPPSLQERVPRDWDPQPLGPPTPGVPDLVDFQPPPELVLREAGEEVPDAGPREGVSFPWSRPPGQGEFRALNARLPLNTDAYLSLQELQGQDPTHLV
T2 sequence (looked up) 2: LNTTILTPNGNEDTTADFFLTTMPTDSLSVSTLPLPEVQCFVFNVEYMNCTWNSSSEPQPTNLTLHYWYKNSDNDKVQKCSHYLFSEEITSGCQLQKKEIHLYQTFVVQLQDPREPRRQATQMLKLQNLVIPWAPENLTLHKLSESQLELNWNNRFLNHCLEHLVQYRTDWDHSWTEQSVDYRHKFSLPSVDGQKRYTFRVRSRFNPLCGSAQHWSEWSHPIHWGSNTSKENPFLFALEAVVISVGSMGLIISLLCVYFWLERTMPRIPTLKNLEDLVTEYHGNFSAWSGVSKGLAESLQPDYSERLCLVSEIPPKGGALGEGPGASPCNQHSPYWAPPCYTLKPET


How the values were obtained:
[1] = biological target: T1, hu IL2R beta-gamma-Fc (P1AD7029-002); test: SPR, supernatant captured by anti-human Fab (142 RU), single injection of IL2Rbg-Fc
Excerpt: (§1) Bulk refractive index differences were corrected for by subtracting the response obtained on the reference flow cell 1.

[2] = biological target: T2, IL-2R on human cells (activated CD4 T …); test: cell-based or functional assay
[3] = biological target: T2, IL-2R on human cells (activated CD4 T …); test: cell-based or functional assay; remark: listed apart in the source
[4] = biological target: T2, IL-2R on human cells (activated CD4 T …); test: cell-based or functional assay; remark: listed apart in the source
[5] = biological target: T1, hu IL2R beta-gamma-Fc (P1AD7029-002); test: SPR, captured via anti-human Fc, IL2Rbg-Fc analyte, 1:1 Langmuir
Excerpt: as §1

| binding result [1] | fold decrease in STAT5-P potency against untargeted IL2v (FAP-IL2v) [2] [fold] | Percentage of internalization (0.6 nM, activated CD4 T cells, 3 h at 37 C) [3] [%] | Potency reduction versus PD1-IL2v (MFI) [4] [fold] | Potency reduction versus PD1-IL2v (frequency) [4] [fold] | Kd [5] [nM] | koff [5] [s⁻¹] | kon [5] [M⁻¹ s⁻¹] | Binder |
| --- | --- | --- | --- | --- | --- | --- | --- | --- |
| no binding (tested: 300 nM) | – | – | – | – | – | – | – | PD1 376 IgG-huIL2v T51P (P1AE0492) (other, Immunoconjugate; tested from HEK supernatant only) light: DIVMTQSPDSLAVSLGERATINCKASESVDTSDNSFIHWYQQKPGQSPKLLIYRSSTLESGVPDRFSGSGSGTDFTLTISSLQAEDVAVYYCQQNYDVPWTFGQGTKVEIKRTVAAPSVFIFPPSDEQLKSGTASVVCLLNNFYPREAKVQWKVDNALQSGNSQESVTEQDSKDSTYSLSSTLTLSKADYEKHKVYACEVTHQGLSSPVTKSFNRGEC heavy 1: EVQLLESGGGLVQPGGSLRLSCAASGFSFSSYTMSWVRQAPGKGLEWVATISGGGRDIYYPDSVKGRFTISRDNSKNTLYLQMNSLRAEDTAVYYCVLLTGRVYFALDSWGQGTLVTVSSASTKGPSVFPLAPSSKSTSGGTAALGCLVKDYFPEPVTVSWNSGALTSGVHTFPAVLQSSGLYSLSSVVTVPSSSLGTQTYICNVNHKPSNTKVDKKVEPKSCDKTHTCPPCPAPEAAGGPSVFLFPPKPKDTLMISRTPEVTCVVVDVSHEDPEVKFNWYVDGVEVHNAKTKPREEQYNSTYRVVSVLTVLHQDWLNGKEYKCKVSNKALGAPIEKTISKAKGQPREPQVCTLPPSRDELTKNQVSLSCAVKGFYPSDIAVEWESNGQPENNYKTTPPVLDSDGSFFLVSKLTVDKSRWQQGNVFSCSVMHEALHNHYTQKSLSLSPGK heavy 2: EVQLLESGGGLVQPGGSLRLSCAASGFSFSSYTMSWVRQAPGKGLEWVATISGGGRDIYYPDSVKGRFTISRDNSKNTLYLQMNSLRAEDTAVYYCVLLTGRVYFALDSWGQGTLVTVSSASTKGPSVFPLAPSSKSTSGGTAALGCLVKDYFPEPVTVSWNSGALTSGVHTFPAVLQSSGLYSLSSVVTVPSSSLGTQTYICNVNHKPSNTKVDKKV[human IgG1 Fc with changes not written out]GGGGSGGGGSGGGGSAPASSSTKKTQLQLEHLLLDLQMILNGINNYKNPKLTRMLTAKFAMPKKAPELKHLQCLEEELKPLEEVLNGAQSKNFHLRPRDLISNINVIVLELKGSETTFMCEYADETATIVEFLNRWITFAQSIISTLT |
| – | 6.5 | 76.6 | 44.7 | 82.1 | 45 | 0.000737 | 16600 | FAP 4B9 IgG-huIL2v_Q126T (P1AE4812) (other, Immunoconjugate: anti-FAP IgG1 PG LALA knob/hole, IL2v variant on the knob heavy chain; also called FAP-IL2vQ126T) light: EIVLTQSPGTLSLSPGERATLSCRASQSVTSSYLAWYQQKPGQAPRLLINVGSRRATGIPDRFSGSGSGTDFTLTISRLEPEDFAVYYCQQGIMLPPTFGQGTKVEIKRTVAAPSVFIFPPSDEQLKSGTASVVCLLNNFYPREAKVQWKVDNALQSGNSQESVTEQDSKDSTYSLSSTLTLSKADYEKHKVYACEVTHQGLSSPVTKSFNRGEC heavy 1: EVQLLESGGGLVQPGGSLRLSCAASGFTFSSYAMSWVRQAPGKGLEWVSAIIGSGASTYYADSVKGRFTISRDNSKNTLYLQMNSLRAEDTAVYYCAKGWFGGFNYWGQGTLVTVSSASTKGPSVFPLAPSSKSTSGGTAALGCLVKDYFPEPVTVSWNSGALTSGVHTFPAVLQSSGLYSLSSVVTVPSSSLGTQTYICNVNHKPSNTKVDKKVEPKSCDKTHTCPPCPAPEAAGGPSVFLFPPKPKDTLMISRTPEVTCVVVDVSHEDPEVKFNWYVDGVEVHNAKTKPREEQYNSTYRVVSVLTVLHQDWLNGKEYKCKVSNKALGAPIEKTISKAKGQPREPQVCTLPPSRDELTKNQVSLSCAVKGFYPSDIAVEWESNGQPENNYKTTPPVLDSDGSFFLVSKLTVDKSRWQQGNVFSCSVMHEALHNHYTQKSLSLSPGK heavy 2: EVQLLESGGGLVQPGGSLRLSCAASGFTFSSYAMSWVRQAPGKGLEWVSAIIGSGASTYYADSVKGRFTISRDNSKNTLYLQMNSLRAEDTAVYYCAKGWFGGFNYWGQGTLVTVSSASTKGPSVFPLAPSSKSTSGGTAALGCLVKDYFPEPVTVSWNSGALTSGVHTFPAVLQSSGLYSLSSVVTVPSSSLGTQTYICNVNHKPSNTKVDKKV[human IgG1 Fc with changes not written out]GGGGSGGGGSGGGGSGGGGSGGGGSAPASSSTKKTQLQLEHLLLDLQMILNGINNYKNPKLTRMLTAKFAMPKKATELKHLQCLEEELKPLEEVLNGAQSKNFHLRPRDLISNINVIVLELKGSETTFMCEYADETATIVEFLNRWITFATSIISTLT |
